Screen size: about 46,000 compounds; about 60 (0.1%) were called active. Inconclusive results (about 3%) are left out. Calls come from the whole dose curve; as a rule, active = well fitted inhibition curve with a large enough effect; inconclusive = small, poorly fitted or top-dose-only effect; inactive = no such curve, though single readings can be large or run the other way. The list shows a part of the results.
Experiment: Primary qHTS assay for Inhibitors of ovarian cancer metastasis using an organotypic tumor microenvironment (TME) model.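 For activity change, negative = inhibition: plate controls were DMSO wells for no effect and tomatine positive control wells for full effect.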 Note: nearly all actives have a fitted effect of over 65% in size.
Conditions: SKOV3ip1-GFP adhesion/invasion on 3D omental model, fluorescence; series mostly up to 45.8 µM; activity change, negative = inhibition: at the top concentration
How it was run: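 qHTS, 4-pt dose (0.36-46 umol/L); SKOV3ip1-GFP, 1,200 cells/well, no FBS; primary omental fibroblast/mesothelial co-culture 48 h pre-grown; 2 h RT + 16 h 37 C; PBS wash, 4% PFA; GFP count 488/509 nm.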

Activity change, negative = inhibition, inactive:
CCOCCCNC(=O)C(c1ccccc1)N1Cc2ccccc2C1=O (stereo unspecified) 7.76%
Cc1cccc(NC(=O)C(=O)NCC(c2ccc3c(c2)OCO3)N2CCN(c3ccccc3)CC2)c1 (stereo unspecified) 0.459%
CCOc1ccc(OCC(=O)NCCS(=O)(=O)N2CCN(c3cccc(Cl)c3)CC2)cc1 -10.6%
Cc1cccc(NC(=O)N2CCC(N3CCN(Cc4ccccc4)C(=O)C3=O)CC2)c1C -1.44%
CC(C)(C)C1CCc2onc(C(=O)Nc3sc4c(c3C#N)CCCC4)c2C1 (stereo unspecified) -9.26%
Cc1ccccc1N1CC(c2nnc(NC(=O)c3ccco3)s2)CC1=O (stereo unspecified) 7.17%
CC(C)c1ccc(CNc2nc(-c3ccco3)nn2S(=O)(=O)c2ccc(F)cc2)cc1 -3.67%
CCCC1N=C2c3ccccc3N=C(SCC(=O)NCCc3ccc(Cl)cc3)N2C1=O (stereo unspecified) 6.9%
CCCCNS(=O)(=O)c1ccc2nc(-c3cccnc3)cc(C(=O)NC(C)C)c2c1 -15.8%
Cn1nc(C(=O)N2CCN(c3ccccc3F)CC2)c2c1-c1ccccc1S(=O)(=O)C2 1.04%
O=C(c1cc(-c2ccc(F)cc2)on1)N1CCN(c2ccc(F)cc2)CC1 -1.16%
CCOC(=O)COc1ccc(C)cc1C(=O)c1ccn2nc(-c3ccc(Cl)cc3)cc2n1 -0.459%
Cc1oc2ncnc(N3CCOCC3)c2c1C(=O)NCCc1ccccc1 -1.23%
CCn1c(C(=O)Nc2ccc(C)cc2C)cc2sc(Cl)cc21 -0.328%
CCOC(=O)c1ccccc1NC(=O)c1cc2ccc3cccnc3c2[nH]1 1.3%
CCCOC(=O)CSc1nnc(-c2ccccc2)o1 -9.46%
CC1CCC(NC(=O)C2(C)Cc3ccccc3C(=O)N2Cc2ccc(Cl)cc2)CC1 (stereo unspecified) -5.71%
Cc1ccc(Nc2nc3ccc(C(=O)c4ccccc4)cc3n3c(C)nnc23)c(C)c1 -0.642%
Cc1sc2ncn(CC(=O)N(C)c3ccc(C(C)C)cc3)c(=O)c2c1S(=O)(=O)N1CCC(C)CC1 4.22%
Cc1ccc(NS(=O)(=O)c2ccc3nc(-c4ccccc4)[nH]c3c2)c(Br)c1 2.77%
CCCCN(CC)CCCNC(=O)c1cn(CC)c2ccc(S(=O)(=O)N3CCc4ccccc4C3)cc2c1=O -19.4%
CCCn1c(=O)c2sccc2n2c(CCCC(=O)N3CCN(c4cccc(Cl)c4)CC3)nnc12 -8.73%
O=C(Cn1cc(C(=O)c2ccccc2)c(=O)c2cc3c(cc21)OCCO3)Nc1ccc(F)c(F)c1 -4.31%
COc1ccc(CCNC(=O)c2cc3c(=O)n(C)c4ccccc4c3s2)cc1OC -3.95%
COc1ccc(CCNCc2c(C(=O)O)c(C)n(Cc3cccc(Cl)c3)c2C)c(OC)c1OC 8.57%
CCc1ccccc1NC(=O)CCC(=O)N1CC(C)Oc2ccc(C)cc21 (stereo unspecified) -8.04%
CCOc1ccc(CC(=O)NCc2ccc3c(c2)CCN3C(=O)c2ccccc2)cc1OCC 1.4%
COc1ccc(NC(=O)CC2C(=O)N(c3cccc(OC)c3)C(=O)N2CCC2=CCCCC2)cc1 (stereo unspecified) 1.88%
O=C(NCc1ccc(F)cc1)C(=O)Nc1ccc2nc3n(c(=O)c2c1)CCCCC3 0.276%
COc1ccc(NC(=O)CCNS(=O)(=O)c2ccc3c(c2)CCCC(=O)N3)cc1 -4.22%
COc1ccc(NC(=O)c2c(NC(=O)COc3ccccc3)sc3c2CCCCC3)cc1 0.399%
Cc1ccccc1CNC(=O)CCC(=O)N1CCSc2ccccc21 1.47%
CCOc1ccccc1CNS(=O)(=O)c1cc2c(cc1C)NC(=O)CO2 -0.0437%
O=C(Cn1cc(S(=O)(=O)Cc2ccccc2Cl)c2ccccc21)NCCc1ccccc1 -22.2%
Cc1cc(C)c(NC(=O)c2oc3c(c2C)-c2[nH]ncc2CC3)c(C)c1 -4.5%
Cc1cccc(CN2CCN(CC(=O)NCCc3ccc(Cl)cc3)C2=O)c1 -14.8%
O=C(NCc1ccc(Cl)cc1)C1CCC(CNS(=O)(=O)c2ccccc2)CC1 (stereo unspecified) -0.858%
O=C(Nc1ccc(N2CCN(c3ccc(F)cc3)CC2)c(C(=O)O)c1)c1cccs1 1.25%
CCOc1cc2c(cc1OCC)C(CC(=O)O)N(C(=O)Nc1ccc(Br)c(C)c1)CC2 (stereo unspecified) 0.366%
CCCCOc1ccc(C(=O)NCCc2sc3nc(-c4ccc(OC)cc4)nn3c2C)cc1 36.2%
CCCCOc1ccc(C(=O)NCc2cn3cccc(C)c3n2)cc1 0.334%
Cc1ccc(C(=O)Nc2ccc(C(=O)O)cc2)cc1S(=O)(=O)N1CCC(C)CC1 -9.29%
Cc1c(C(=O)Nc2ccc(F)c(Cl)c2)sc2nc3n(c(=O)c12)CCC3 -0.143%
COc1ccc(NC(=O)c2ccco2)cc1NC(=O)c1ccc(C#N)cc1F 0.146%
CCCNC(=O)c1cnn(-c2ccc(C)c(C)c2)c1C1CCN(C(=O)OC(C)(C)C)CC1 -5.51%

outcome, inactive:
CC(=O)c1cccc(NS(=O)(=O)c2cc3c(cc2C)n(C)c(=O)c(=O)n3C)c1
Cc1cccc(N2CCN(Cc3cc(=O)oc4cc(C)ccc34)CC2C)c1 (stereo unspecified)
O=C(CN1C(=O)c2cccc3cccc1c23)Nc1ccccc1Br
CC(C)NC(=O)c1ccc2c(c1)nc1n2CCCCC1
O=C(/C=C/c1ccc(Cl)cc1)N1CCC(c2nc3ccccc3o2)CC1
CC(=O)c1cccc(NC(=O)CN2C(=O)CC(c3ccc(C)cc3C)=Nc3ccccc32)c1
Cc1ccc(C)c(N2CCN(S(=O)(=O)c3ccc(C(=O)N(C)C)s3)CC2)c1
CCc1cc2c(cc3c(=O)n(CC(=O)N4CCN(c5cccc(C)c5C)CC4)nc(CC)n32)s1
CCn1nnc2cc(C(=O)Nc3cc(C)ccc3C)ccc21
Cc1ccc(-c2cc3ncc4c(n3n2)-c2cc(Cl)ccc2OC4)cc1
CCN(CC)c1nn2c(=O)c(C(=O)NCCc3ccccc3C)cnc2s1
CCOc1ccc(N(C)C(=O)C2CCN(S(=O)(=O)c3c(C)noc3/C=C/c3ccc(C)cc3)CC2)cc1
Cc1cccc(-c2nc3scc(CCNS(=O)(=O)c4ccc(F)c(C(F)(F)F)c4)n3n2)c1
COc1ccc(Cl)cc1NC(=O)CSc1nc2c(oc3ccccc32)c(=O)n1Cc1ccco1
Fc1ccccc1N1CCN(c2ncnc3onc(-c4ccc(Cl)cc4)c23)CC1
CCOC(=O)c1ccccc1NC(=O)CN1C(=O)CC(c2ccccc2)Sc2ccccc21 (stereo unspecified)
